Data published in US20260193317A1, “COMBINATION THERAPY WITH ACTRIIB RECEPTOR VARIANTS AND GLP-1 AGONISTS” (35PHARMA Inc., priority 2023, published 2026).

T1: activin A (Homo sapiens, UniProt P08476)
T1 sequence (P08476 311-426): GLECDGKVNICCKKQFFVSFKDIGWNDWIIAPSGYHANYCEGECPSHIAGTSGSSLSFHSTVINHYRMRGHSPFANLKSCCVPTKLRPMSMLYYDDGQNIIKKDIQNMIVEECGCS

T2: activin B (Homo sapiens, UniProt P09529)
T2 sequence (P09529 293-407): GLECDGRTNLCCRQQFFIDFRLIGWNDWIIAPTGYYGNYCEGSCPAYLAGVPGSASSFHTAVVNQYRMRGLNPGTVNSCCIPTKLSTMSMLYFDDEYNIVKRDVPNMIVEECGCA

T3: BMP-9 (Homo sapiens, UniProt Q9UK05)
T3 sequence (Q9UK05 320-429): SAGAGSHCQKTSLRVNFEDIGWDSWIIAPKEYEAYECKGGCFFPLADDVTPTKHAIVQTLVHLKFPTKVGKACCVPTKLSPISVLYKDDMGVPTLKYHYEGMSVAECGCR

T4: BMP-10 (Homo sapiens, UniProt O95393)
T4 sequence (O95393 317-424): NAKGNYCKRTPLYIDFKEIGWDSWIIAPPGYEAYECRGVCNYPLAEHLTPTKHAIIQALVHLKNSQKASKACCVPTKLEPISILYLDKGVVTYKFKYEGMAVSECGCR


Assays:
[1] = biological target: T1, activin A; experiment: TGFβ-reporter HEK293 cell-based assay: activin A neutralization; conditions: for IC50: TGFβ-reporter HEK293 cells, ligand 0.3 nM
Description: (§1) Potency testing by neutralization on cell-based assays. Characterization of the activin A, activin B, GDF-8, and GDF-11 inhibition potency (IC50) of the fusion proteins was performed using a cell-based reporter assay. TGFβ-reporter HEK293 cells were obtained from InvivoGen (San Diego, CA, cat. no. hkb-tgfb) and were maintained following the manufacturer's instructions. Briefly, cells were grown in high-glucose DMEM, containing 10% heat-inactivated FBS, 30 μg/mL blasticidin, 250 μg/mL hygromycin B, and 100 μg/mL zeocin (hereafter, “growth medium”). Once the cells reached 70-80% confluence, they were detached in growth medium by gently tapping on the flask. For all assays, cells were seeded in 96-well plates at a density of 20,000 cells per well in growth medium. Cells were left to attach for 10 minutes at room temperature (RT) prior to being transferred to a 37° C. incubator (5% CO2) overnight. The next day, treatments were prepared by combining the appropriate concentration of agent with activin A, activin B, GDF-8, or GDF-11 for 30 min at RT (shaking at 150 rpm). Treatments were conducted in high-glucose DMEM (serum-free and with no selection agents), and the final concentration of cytokine (ligand) was 0.3 nM. Growth medium was removed from the culture plates, and cells were treated with the appropriate mixes of fusion protein and cytokine. Treatment duration was for 18-22 h at 37° C. (5% CO2). All treatments were performed in technical duplicates and at least one or two independent experiments were conducted for each cytokine. At the end of the treatment period, supernatants were transferred to a new plate, and centrifuged at 300 RPM for 3 min. Forty microlitres of supernatant from each condition was transferred to a new plate, into which 180 μL of Quanti-Blue reagent (InvivoGen, cat. no. rep-qbs) was added. Quanti-Blue reagent was prepared following the manufacturer's instructions. Samples were incubated for 45 min at 37° C. At the end of the incubation, absorbance was read at 650 nm. The data were plotted in GraphPad Prism, which was used to calculate IC50 values as a non-linear regression.

[2] = biological target: T2, activin B; experiment: TGFβ-reporter HEK293 cell-based assay: activin B neutralization; conditions: TGFβ-reporter HEK293 cells, ligand 0.3 nM
Description: (§2) Potency testing by neutralization on cell-based assays. Characterization of the activin A, activin B, GDF-8, and GDF-11 inhibition potency (IC50) of the fusion proteins was performed using a cell-based reporter assay. TGFβ-reporter HEK293 cells were obtained from InvivoGen (San Diego, CA, cat. no. hkb-tgfb) and were maintained following the manufacturer's instructions. Briefly, cells were grown in high-glucose DMEM, containing 10% heat-inactivated FBS, 30 μg/mL blasticidin, 250 μg/mL hygromycin B, and 100 μg/mL zeocin (hereafter, “growth medium”). Once the cells reached 70-80% confluence, they were detached in growth medium by gently tapping on the flask. For all assays, cells were seeded in 96-well plates at a density of 20,000 cells per well in growth medium. Cells were left to attach for 10 minutes at room temperature (RT) prior to being transferred to a 37° C. incubator (5% CO2) overnight. The next day, treatments were prepared by combining the appropriate concentration of agent with activin A, activin B, GDF-8, or GDF-11 for 30 min at RT (shaking at 150 rpm). Treatments were conducted in high-glucose DMEM (serum-free and with no selection agents), and the final concentration of cytokine (ligand) was 0.3 nM. Growth medium was removed from the culture plates, and cells were treated with the appropriate mixes of fusion protein and cytokine. Treatment duration was for 18-22 h at 37° C. (5% CO2). All treatments were performed in technical duplicates and at least one or two independent experiments were conducted for each cytokine. At the end of the treatment period, supernatants were transferred to a new plate, and centrifuged at 300 RPM for 3 min. Forty microlitres of supernatant from each condition was transferred to a new plate, into which 180 μL of Quanti-Blue reagent (InvivoGen, cat. no. rep-qbs) was added. Quanti-Blue reagent was prepared following the manufacturer's instructions. Samples were incubated for 45 min at 37° C. At the end of the incubation, absorbance was read at 650 nm. […]

[3] = biological target: GDF-8 (Homo sapiens, UniProt O14793); experiment: TGFβ-reporter HEK293 cell-based assay: GDF-8 neutralization; conditions: TGFβ-reporter HEK293 cells, ligand 0.3 nM
Description: as §2

[4] = biological target: GDF-11 (Homo sapiens, UniProt O95390); experiment: TGFβ-reporter HEK293 cell-based assay: GDF-11 neutralization; conditions: TGFβ-reporter HEK293 cells, ligand 0.3 nM
Sequence of GDF-11 (O95390 299-407): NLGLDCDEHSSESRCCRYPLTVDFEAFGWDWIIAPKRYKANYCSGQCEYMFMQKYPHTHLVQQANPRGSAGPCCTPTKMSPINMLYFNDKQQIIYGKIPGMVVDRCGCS
Description: as §1

[5] = biological target: T3, BMP-9; experiment: BMP-reporter HepG2 cell-based assay: BMP-9 neutralization; conditions: for IC50: BMP-reporter HepG2 cells, BMP-9 2 ng/mL
Description: (§3) Characterization of the BMP-9 and BMP-10 inhibition potency (IC50) of the fusion proteins was performed using a second cell-based reporter assay. Human hepatic HepG2 cells were transfected with a SEAP-encoding plasmid, in which SEAP expression is under the control of the murine Id1 promoter. A stable pool was generated from this transfection. Cells were grown in EMEM, containing 10% heat-inactivated FBS and 200 μg/mL zeocin (hereafter, “HepG2 growth medium”). […] For all assays, cells were seeded in 96-well plates at a confluence of 100,000 cells per well in HepG2 growth medium. Cells were left to attach for 10 minutes at RT prior to being transferred to a 37° C. incubator (5% CO2) overnight. The next day, treatments were prepared in EMEM (2.5% heat-inactivated FBS and with no selection agents) by combining the appropriate concentration of agent with BMP-9 or BMP-10 for 30 min at RT (shaking at 150 rpm). Treatments were conducted in EMEM (2.5% heat-inactivated FBS and with no selection agents), and the final concentration of BMP-9 and BMP-10 was 2 ng/mL and 40 ng/mL, respectively. HepG2 growth medium was removed from the culture plates, and cells were treated with the appropriate mixes of fusion protein and cytokine. Treatment duration was for 20-24 h at 37° C. (5% CO2). All treatments were performed in technical duplicates and at least one or two independent experiments were conducted for each cytokine. At the end of the treatment period, supernatants were transferred to a new plate, and centrifuged at 300 RPM for 3 min. Forty microlitres of supernatant from each condition was transferred to a new plate, onto which 180 μL of Quanti-Blue reagent was added. Quanti-Blue reagent was prepared following the manufacturer's instructions. Samples were incubated for 5-6 h with Quanti-Blue reagent at 37° C. At the end of the incubation, absorbance was read at 650 nm. The data were plotted in GraphPad Prism, which was used to calculate IC50 values as a non-linear regression.

[6] = biological target: T4, BMP-10; experiment: BMP-reporter HepG2 cell-based assay: BMP-10 neutralization; conditions: BMP-reporter HepG2 cells, BMP-10 40 ng/mL
Description: as §3

[7] = tested on: TGFβ superfamily ligands; experiment: Neutralization profile across TGFβ superfamily ligands (HEK293 and HepG2 reporter assays, summary); format: cell-based, human
Description: as §1
Characterization of the BMP-9 and BMP-10 inhibition potency (IC50) of the fusion proteins was performed using a second cell-based reporter assay. Human hepatic HepG2 cells were transfected with a SEAP-encoding plasmid, in which SEAP expression is under the control of the murine Id1 promoter. A stable pool was generated from this transfection. Cells were grown in EMEM, containing 10% heat-inactivated FBS and 200 μg/mL zeocin (hereafter, “HepG2 growth medium”). […] For all assays, cells were seeded in 96-well plates at a confluence of 100,000 cells per well in HepG2 growth medium. Cells were left to attach for 10 minutes at RT prior to being transferred to a 37° C. incubator (5% CO2) overnight. The next day, treatments were prepared in EMEM (2.5% heat-inactivated FBS and with no selection agents) by combining the appropriate concentration of agent with BMP-9 or BMP-10 for 30 min at RT (shaking at 150 rpm). Treatments were conducted in EMEM (2.5% heat-inactivated FBS and with no selection agents), and the final concentration of BMP-9 and BMP-10 was 2 ng/mL and 40 ng/mL, respectively. HepG2 growth medium was removed from the culture plates, and cells were treated with the appropriate mixes of fusion protein and cytokine. Treatment duration was for 20-24 h at 37° C. (5% CO2). All treatments were performed in technical duplicates and at least one or two independent experiments were conducted for each cytokine. At the end of the treatment period, supernatants were transferred to a new plate, and centrifuged at 300 RPM for 3 min. Forty microlitres of supernatant from each condition was transferred to a new plate, onto which 180 μL of Quanti-Blue reagent was added. Quanti-Blue reagent was prepared following the manufacturer's instructions. Samples were incubated for 5-6 h with Quanti-Blue reagent at 37° C. […]

[8] = SEC-HPLC monomer and HMW content of purified fusion proteins; format: physicochemical; conditions: after Protein A purification
Source text: Given that protein aggregation can be indicative of reduced conformational stability and decreased activity, Size-Exclusion Chromatography-High Performance Liquid Chromatography (SEC-HPLC) was used to determine the purity of each ActRIIB-ECD construct. This method measured the percentage of intact monomeric species as well as the presence of aggregates and/or degradation products.
All proteins expressed efficiently in CHO and/or 293 cells and purification efficiency of each using Protein A affinity chromatography was similar.

Molecule | IC50 [1] [nM] | IC50 [2] [nM] | IC50 [3] [nM] | IC50 [4] [nM] | IC50 [5] [nM] | improved potency on BMP-9 ([5]; relative to P75) | IC50 [6] [nM] | reduced neutralization of activin A, activin B, GDF-8, GDF-11, and BMP-10 ([7]; relative to P75) | high molecular weight (HMW) content (SEC-HPLC) [8] [%] | monomer content (SEC-HPLC) [8] [%] | improved potency on activin A relative to P75 [1] | reduced potency on most TGFβ superfamily ligands (activin B, GDF-8, GDF-11, BMP-9, BMP-10) relative to P75 [7]
P739: hActRIIB G27E, 14 aa linker, IgG1-DL Fc; SEQ ID 174 (protein) ETRECIYYNANWELERTNQSGLERCEEEQDKRLHCYASWRNSSGTIELVKKGCWLDDFNCYDRQECVATEENPQVYFCCCEGNFCNERFTHLPEAGGPEVTYEPPPTGGGGSGGGGSGG[human IgG1 Fc and a few adjoining residues not spelt out] | 3.5 | 6 | 2 | 2.1 | 1.1 | ~ 2 fold | 4 | 2-3 fold | 14 | 86 |  | 
P753: hActRIIB T69H, 14 aa linker, IgG1-DL Fc; SEQ ID 177 (protein) ETRECIYYNANWELERTNQSGLERCEGEQDKRLHCYASWRNSSGTIELVKKGCWLDDFNCYDRQECVAHEENPQVYFCCCEGNFCNERFTHLPEAGGPEVTYEPPPTGGGGSGGGGSGG[human IgG1 Fc and a few adjoining residues not spelt out] | 1.6 | 2.4 | 1.4 | 1.5 | 2.1 |  | 2.9 |  | 16 | 84 | ~ 1.5 fold | ~ 2 fold
P1407: hActRIIB L14D, L33W, 19 aa linker, IgG1-DL Fc; SEQ ID 246 (protein) ETRECIYYNANWEDERTNQSGLERCEGEQDKRWHCYASWRNSSGTIELVKKGCWLDDFNCYDRQECVATEENPQVYFCCCEGNFCNERFTHLPEAGGPEVTYEPPPTGGGGSGGGGSGGGGSGG[human IgG1 Fc and a few adjoining residues not spelt out] |  |  | 0.48 | 0.39 |  |  |  |  |  |  |  | 
